{"source": "PubChem BioAssay AID1508624", "about": "(National Center for Advancing Translational Sciences (NCATS), 2021)", "note": "Among all 48,000 compounds or so, about 120 (0.25%) were called active. Inconclusive means that the source gave no clear call. Such entries were picked first, then a sample of the others. Calls follow the shape of the dose curve; as a rule, active = well fitted activation curve with a large enough effect; inconclusive = small, poorly fitted or top-dose-only effect, or another doubt; inactive = no such curve, though single readings can be large or run the other way. Potencies of inconclusive entries are doubtful fits and often do not repeat. Potency is read from the fitted curve at half-maximal effect; tags tell the direction and shape of the fitted curve."}
{"assay": "Primary qHTS for Identification of Small Molecule Activators of Huntingtin-Antisense Promoter Activity; also: nearly all actives have a fitted effect of over 55% in size", "conditions": "HEK293 HTT-AS promoter firefly luciferase reporter, 24 h; activity change, positive = activation: at 57.5 µM (top of the series), percent change from vehicle, -100% = no light unless noted", "source_text": "Assay Provider: Russell L. Margolis M.D.\nDepartment Neurology, Johns Hopkins University School of Medicine, Baltimore, MD\nHuntington's Disease (HD) is a neurodegenerative disorder caused by a CAG repeat expansion in exon 1 of huntingtin (HTT). While there are currently no disease-modifying treatments for HD, recent efforts have focused on development of nucleotide-based therapeutics to lower HTT expression. As an alternative to siRNA or oligonucleotide methods, we hypothesized that suppression of HTT expression might be accomplished by small molecules that either (1) directly decrease HTT expression by suppressing HTT promoter activity or (2) indirectly decrease HTT expression by increasing the promoter activity of HTT-AS, the gene antisense to HTT that appears to inhibit expression of HTT.\nWe developed and employed a high throughput screen for modifiers of HTT and HTT-AS promoter activity using luminescent reporter HEK293 cells; of the 52,041 compounds tested, we identified 898 replicable hits. We used a rigorous stepwise approach to assess compound toxicity and the capacity of the compounds to specifically lower huntingtin protein in 5 different cell lines, including HEK293 cells, HD lymphoblastoid cells, mouse primary neurons, HD iPSCs differentiated into cortical-like neurons, and HD hESCs. We found no compounds which were able to lower huntingtin without lowering cell viability in all assays, though the potential efficacy of a few compounds at non-toxic doses could not be excluded.\nSEQUENCE No. (1, 2, 3, etc.); […] (e.g., Cells, Incubation, Reagent, etc.); VALUE and DESCRIPTION.\n1; Reagent; 4 uL; 2,500 Hek293 luciferase reporter cells per wells\n3; Compound; 23 nL; Control inhibitor / compound library\n5; Reagent; 2.5 uL; Firefly Luc reagent; Dual-Glo Luciferase Reporter Assay System (Promega)\n6; Time; 10 min; room temperature incubation\n7; Detection; Luminescence; FLuc\nNOTES (numbers refer to sequence above)\n1; High-throughput screening, measuring luminescence from a Hek293 luciferase reporter, was performed in 1,536 well white-walled tissue-culture treated plates. 2,500 cells were plated in 4 µL of Opti-MEM per well using a Multidrop Combi Reagent Dispenser (ThermoFisher).\n2; Assay plates were cultured for 24 hours.\n3; Control inhibitor (PTC124; final concentration of 50 uM) and compound library (at final concentrations of 460 nM - 57.5 uM) were added to the assay plate using the Kalypsis Pintool Robotic System equipped with 1536 pinheads.\n4; Cells were then incubated for 24 hours at 37 degrees C prior to luminescence measurements.\n5; In all cases, luminescence was measured using the Dual-Glo Luciferase Reporter Assay System (Promega) following the manufacturer's instructions.\n6; Room temperature incubation.\n7; Luminescence signal was obtained using the PerkinElmer ViewLux plate reader. Results were normalized to vehicle control (0% activity) and zero RLU (-100% activity)."}
{"molecule": "COc1ccc(Nc2nc(N)nc(CSc3nc4ccccc4s3)n2)cc1", "activity change, positive = activation": "inactive: -4.98%"}
{"molecule": "COc1cccc(NC(=O)C(=O)NCCc2sc(-c3cccc(C)c3)nc2C)c1", "Potency": "inconclusive: 14.1 µM [activator, partial curve, poor fit]"}
{"molecule": "O=C(C1COc2ccccc2O1)N(Cc1cccnc1)c1nc2ccc(F)cc2s1", "note": "(configuration not stated)", "Potency": "inconclusive: 22.4 µM [activator, partial curve, poor fit]"}
{"molecule": "CN(C)c1ccc(CNc2nc(-c3ccco3)nn2S(=O)(=O)c2ccc(Cl)cc2)cc1", "Potency": "inconclusive: 5.01 µM [activator, partial curve, poor fit]"}
{"molecule": "O=C(Cn1c(=O)oc2ccccc21)NCc1ccccc1Cl", "Potency": "inconclusive: 11.2 µM [activator, partial curve, poor fit]"}
{"molecule": "COc1ccc(-n2c(-c3ccc(F)cc3)cn3c4c(=O)n(C)c(=O)n(C)c4nc23)cc1", "Potency": "inconclusive: 20 µM [activator, partial curve]"}
{"molecule": "COc1ccccc1CNC(=O)Cn1c(=O)oc2ccccc21", "Potency": "inconclusive: 10 µM [activator, partial curve]"}
{"molecule": "COc1ccccc1N1CCN(C(=O)CCSCc2ccccc2F)CC1", "Potency": "inconclusive: 22.4 µM [activator, single point]"}
{"molecule": "COc1ccc(Nc2oc(/C=C/c3ccc(F)cc3)nc2C#N)cc1", "Potency": "inconclusive: 1.41 µM [activator, full curve]"}
{"molecule": "Cc1ccc2nc(N3CCN(C(=O)C4COc5ccccc5O4)CC3)sc2c1", "note": "(configuration not stated)", "Potency": "inconclusive: 8.91 µM [activator, full curve, poor fit]"}
{"molecule": "COc1ccc(-c2nc3ccccc3o2)cc1NC(=O)c1ccc(N2CCC(C)CC2)c([N+](=O)[O-])c1", "Potency": "inconclusive: 22.4 µM [activator, single point]"}
{"molecule": "Cc1nn(Cc2ccccc2)c(C)c1NC(=O)c1cc(C(C)C)on1", "activity change, positive = activation": "inactive: -3.61% [at 11.5 µM, percent change from vehicle, -100% = no light]"}
{"molecule": "CCc1ccc(NC(=O)c2ccc3c(c2)N(Cc2ccc(C)cc2)CCS3)cc1", "Potency": "inconclusive: 10 µM [activator, partial curve, poor fit]"}
{"molecule": "COc1ccc(Cn2c(C(=O)O)c(CNCc3cccs3)c3ccc(C)cc32)cc1", "activity change, positive = activation": "inactive: -35.1%"}
{"molecule": "CCOc1ccc(-n2c(Cc3ccccc3)nnc2SCc2nc(-c3ccccc3OC)no2)cc1", "activity change, positive = activation": "inconclusive: 17.3% [activator]"}
{"molecule": "CC=C1C2C=C(C)CC1(N)c1ccc(=O)[nH]c1C2", "note": "(configuration not stated)", "Potency": "inconclusive: 43.2 µM [activator, single point]"}
{"molecule": "O=C(Nc1ccc2oc(-c3ccccc3F)nc2c1)c1ccccc1Cl", "Potency": "inconclusive: 3.98 µM [activator, partial curve, poor fit]"}
